# Reference: PubChem BioAssay AID504832 (National Center for Advancing Translational Sciences (NCATS), 2011)
# Screen size: about 310,000 compounds; about 18,000 (5.8%) were called active. This list was built around the results that the source calls inconclusive (neither active nor inactive); the mix of calls is not that of the screen. Calls follow the shape of the dose curve; as a rule, active = well fitted inhibition curve with a large enough effect; inconclusive = small, poorly fitted or top-dose-only effect, or another doubt; inactive = no such curve, though single readings can be large or run the other way. No potency is given beside an inconclusive call; the fits are too rough.
# Test: Primary qHTS for delayed death inhibitors of the malarial parasite plastid, 48 hour incubation
# Settings: P. falciparum luciferase growth in erythrocytes; series mostly up to 28.7 µM
# Procedure, shortened: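 Luminescence readout; reporter = integrated firefly luciferase in P. falciparum. RBC culture at 2% hematocrit, 0.1% parasitemia final, 37 C/5% CO2; decreased signal taken as growth inhibition.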
# Potency is read from the fitted curve at half-maximal effect; tags tell the direction and shape of the fitted curve.
row,Structure (SMILES),Potency
1,C=CCN(CC=C)C(=S)NC(=O)c1ccc(C)c(Br)c1,"inconclusive [inhibitor, single point]"
2,CC(C)NC(=O)/C(=C/c1cn(-c2ccccc2)nc1-c1cccc([N+](=O)[O-])c1)NC(=O)c1ccccc1,inactive
3,O=C(CSc1nc2c(sc3ccccc32)c(=O)n1CCCN1CCOCC1)NC1CCCC1,"inconclusive [inhibitor, full curve, poor fit]"
4,COC(=O)C[C@]1(C(=O)OC)CN(C#N)N(c2ccc(Cl)cc2)C12c1ccccc1-c1ccccc12,active: 3.7 µM
5,CCOc1cc(NC(=S)NCCCN2CCOCC2)c(OCC)cc1NC(=O)C1CCCCC1,inactive
6,Cc1cc(C)nc(Nc2ccc(F)cc2)n1,"inconclusive [inhibitor, single point]"
7,COC(=O)C1=CO[C@@H](OC2OC(CO)C(O)C(O)C2O)[C@@H]2C(CO)=CC[C@H]12 (some centres undefined),inactive
8,C#Cc1ccc([C@@H]2C=C(C(=O)N3CCN(Cc4ccccc4)CC3)O[C@H](OCCCCO)C2)cc1,"inconclusive [inhibitor, single point]"
9,CC(NC(=O)CCc1nnc(-c2ccccc2)o1)c1ccccc1 (centres undefined),inactive
10,O=C(CCN1CCN(CC(=O)Nc2ccccc2Cl)CC1)Nc1ccccc1F,"inconclusive [inhibitor, partial curve]"
11,O=S(=O)(NCC(c1cccnc1)N1CCN(Cc2ccccc2)CC1)c1ccc(Cl)cc1 (centres undefined),"inconclusive [inhibitor, partial curve]"
12,COc1ccc(-c2nc3n(c2C)Cc2ccccc2-3)cc1,inactive
13,COc1ccc(/C=N/NC(=O)c2cccc(COCC(F)(F)C(F)F)c2)cc1,inactive
14,C/C(=N\N=C(N)N)c1ccc(Cl)c(Cl)c1,active: 4.15 µM
15,CCOC(=O)Cn1c(=O)c2c(nc(Br)n2Cc2ccccc2Cl)n(C)c1=O,"inconclusive [inhibitor, single point]"
16,COc1ccc(C2C3=C(CC(C)(C)CC3=O)OC(N)=C2[N+](=O)[O-])cc1 (centres undefined),inactive
17,CC(c1ccccc1)N(CC(=O)NC1CCCCC1)S(=O)(=O)c1cccc(C(F)(F)F)c1 (centres undefined),"inconclusive [inhibitor, partial curve]"
18,Oc1ccc(Br)cc1CNc1cnc2ccccc2c1,"inconclusive [inhibitor, single point]"
19,COc1ccc([N+](=O)[O-])cc1NC(=O)CCc1ccccc1,"inconclusive [inhibitor, full curve, poor fit]"
20,Clc1cccc(-c2ccc(CNCCCN3CCOCC3)o2)c1,"inconclusive [inhibitor, partial curve, poor fit]"
21,O=[N+]([O-])c1cc([N+](=O)[O-])c2nonc2c1Nc1ccc(O)cc1,"inconclusive [inhibitor, single point]"
22,COc1ccc(-c2nc(NC(C)=O)sc2-c2ccccc2)cc1,"inconclusive [inhibitor, single point]"
23,CCOc1ccc(N(C)S(=O)(=O)c2ccc3[nH]cc(C(=O)NCC4CCCO4)c(=O)c3c2)cc1 (centres undefined),active: 13.1 µM

row,Structure (SMILES),Potency
1,O=C(NC1CCCCCC1)c1cc(-c2ccccn2)nc2ccccc12,"inconclusive [inhibitor, single point]"
2,Cc1ccc(N2CC(C(=O)Nc3nnc(SCCC4OCCO4)s3)CC2=O)cc1 (centres undefined),"inconclusive [inhibitor, single point]"
3,Cc1c(C(=O)NCC(C)(C)N2CCOCC2)oc2ccccc12,"inconclusive [inhibitor, partial curve]"
4,c1cc(-c2noc(CC3CCCCC3)n2)ccn1,"inconclusive [inhibitor, single point]"
5,Clc1cccc(CSc2nnc(-c3ccccn3)n2Cc2ccco2)c1,"inconclusive [inhibitor, partial curve]"
6,COC(=O)c1cc(S(=O)(=O)N2CCN(c3ccc(C(C)=O)cc3)CC2)c[nH]1,"inconclusive [inhibitor, single point]"
7,O=C(c1ccco1)N1CCN(Cc2ccc(Br)cc2)CC1,"inconclusive [inhibitor, single point]"
8,CCn1c(SCC(=O)Nc2nc3ccccc3s2)nnc1-c1ccc(OC)cc1,inactive
9,Cc1cc(S(=O)(=O)N2CCOCC2)ccc1OCC(=O)Nc1ccccc1F,inactive
10,Cc1cccc(N(Cc2cc3ccc(C)cc3[nH]c2=O)S(=O)(=O)c2ccccc2)c1,"inconclusive [inhibitor, partial curve]"
11,N#Cc1cn(CCOc2ccc(F)cc2)c2ccccc12,active: 10.4 µM
12,Cc1cccc2nc(C(=O)Nc3cc(Cl)ccc3-n3cncn3)cn12,inactive
13,COc1ccc(-c2nnc(SCc3c(C)noc3C)o2)cc1,inactive
14,COc1ccc(C(=O)NC(Nc2ccccc2)C(Cl)(Cl)Cl)cc1 (centres undefined),"inconclusive [inhibitor, full curve, poor fit]"
15,Cc1sc2nc(CSc3nc4ccccc4c(=O)n3CCCN3CCOCC3)[nH]c(=O)c2c1C,"inconclusive [inhibitor, single point]"
16,COc1ccccc1CC(NC(C)=O)C(=O)N1CCN(C(=O)Nc2ccccc2Cl)CC1 (centres undefined),"inconclusive [inhibitor, partial curve, poor fit]"
17,O=c1oc2ccc(Cl)cc2nc1/C=C(\O)c1cccs1,"inconclusive [inhibitor, single point]"
18,Cc1ccc2nc3c(cc(C(=O)NCCN4CCOCC4)c(=N)n3CCCN3CCOCC3)c(=O)n2c1,active: 11.7 µM
19,CCOc1ccc(NC(=O)c2ccc(NC(=S)NC3CCCCC3)cc2)cc1,"inconclusive [inhibitor, partial curve]"
20,CCOC(=O)c1ccc(NC(=O)c2nc[nH]c2C(=O)N[C@@H](Cc2ccccc2)C(=O)OC(C)(C)C)cc1,"inconclusive [inhibitor, partial curve]"
21,Cc1cc(=O)oc2c(C)c(OCC(=O)N3CCN(C(=O)C4COc5ccccc5O4)CC3)ccc12 (centres undefined),active: 10.4 µM
22,COc1ccc(NC(=O)Nc2sc(NS(=O)(=O)c3ccccc3)nc2C)cc1,"inconclusive [inhibitor, single point]"
23,CCC(CC)C(=O)Nc1nnc(S(=O)(=O)N2c3ccccc3CC2C)s1 (centres undefined),inactive

row,Structure (SMILES),Potency
1,CC(=O)c1ccc(NC(=O)C(C)N2CCN(C/C=C/c3ccccc3)CC2)cc1 (centres undefined),"inconclusive [inhibitor, partial curve, poor fit]"
2,CCOC(=O)C1=C(CC)Nc2ccccc2N/C1=N\S(=O)(=O)c1cc(Br)ccc1Br,inactive
3,Cc1ccc(/C=N\NC(=O)/C(=C\Nc2nccc(C)n2)NC(=O)c2ccccc2)cc1,inactive
4,CCOC(=O)C1=C(N)OC2=C(C(=O)CC(C)(C)C2)C1c1cc(CSc2nnnn2C)cs1 (centres undefined),inactive
5,Cc1ccc(C(CNC(=O)Nc2cccc(C)c2)N2CCN(C)CC2)cc1 (centres undefined),"inconclusive [inhibitor, single point]"
6,COc1ccc(S(=O)(=O)N2CCC(N3CCCC3)CC2)cc1,inactive
7,CCOC(=O)C1(Cc2cccc(OC)c2)CCN(Cc2cccc(OC)c2O)CC1,"inconclusive [inhibitor, full curve]"
8,COc1ccc(Cn2nnnc2C(c2cc3cc(C)cc(C)c3[nH]c2=O)N2CCOCC2)cc1 (centres undefined),inactive
9,Cc1ccc(C(=O)NC2CCN(CC(=O)NC3CCC(C)CC3)CC2)cc1 (centres undefined),"inconclusive [inhibitor, partial curve, poor fit]"
10,CCn1c(N2CCN(C(=O)C34CC5CC(CC(C5)C3)C4)CC2)nc2ccccc21,active: 13.1 µM
11,COc1ccc(-c2ccc(SCC(=O)NCc3ccco3)nn2)cc1OC,inactive
12,Cc1ccc(C(=O)N[C@@H](C)CN2C3=NC[C@@H](Cc4ccccc4)N3C[C@H]2Cc2ccc(O)cc2)cc1Br,active: 5.22 µM
13,Cc1cc(C)c(S(=O)(=O)N2CCCCC2CCNC(=O)C(=O)NCc2ccco2)c(C)c1 (centres undefined),"inconclusive [inhibitor, partial curve, poor fit]"
14,CCOC(=O)C1CCN(c2c(NCc3ccc(N(C)C)cc3)c(=O)c2=O)CC1,"inconclusive [inhibitor, single point]"
15,Cc1ccc(C(C)C)c(OCC(=O)N/N=C/c2cccn2C)c1,"inconclusive [inhibitor, single point]"
16,O=C(Oc1ccc(NC2=NS(=O)(=O)c3ccccc32)cc1)c1cccnc1,inactive
17,COc1ccc2c(COC(=O)CNS(=O)(=O)c3ccc(C)c(C)c3)cc(=O)oc2c1,"inconclusive [inhibitor, single point]"
18,Fc1cccc2sc(Nc3nc4cc5c(cc4s3)OCO5)nc12,inactive
19,NNC(=O)C(=O)Nc1ccc(Cl)c(Cl)c1,inactive
20,O=C(NCC1(c2ccccc2)CCCC1)c1cccc(Br)c1,"inconclusive [inhibitor, single point]"
21,COc1ccc(C2=NN(CCC(=O)NCc3cccs3)C(=O)CC2)cc1,inactive
22,CCc1nc2ccc(C(=O)N(C)CC(=O)Nc3cccc(F)c3)cc2nc1CC,"inconclusive [inhibitor, partial curve, poor fit]"
23,NS(=O)(=O)c1ccc(NC2=CC(c3ccc([N+](=O)[O-])cc3)N(c3ccc(S(N)(=O)=O)cc3)C2=O)cc1 (centres undefined),"inconclusive [inhibitor, full curve, poor fit]"
